Assay results as given in a compilation of properties of binary mixtures (doi:10.1021/jp202828z).
Some of these densities may be calculated back from excess volumes.

Assay: xn = mol fraction of the nth substance listed
Settings: 101 kPa

CCO + CCCC[n+]1ccccc1.F[B-](F)(F)F
x1 = 1
Settings	mass density [kg/m3]
298.15 K	785.2
318.15 K	767.8

CCCC[n+]1ccccc1.F[B-](F)(F)F + CCCO
mass density [kg/m3]
Settings	298.15 K	318.15 K
x1 = 0.0024	802.6	–
x2 = 0	1214.1	1200.2
x2 = 0.0266	–	1194.4
x2 = 0.0563	–	1189.3
x2 = 0.1254	–	1176.8
x2 = 0.1561	1185.6	–
x2 = 0.1743	–	1167.1
x2 = 0.2037	1175.8	–
x2 = 0.2849	–	1142.8
x2 = 0.3093	1151.8	–
x2 = 0.3984	1128.3	–
x2 = 0.4039	–	1112.1
x2 = 0.4665	1108.2	–
x2 = 0.4918	–	1085.2
x2 = 0.7071	–	998.3
x2 = 0.8242	–	932
x2 = 0.9186	–	862.4
x2 = 0.9552	–	830.1
x2 = 0.9656	–	820
x2 = 0.973	–	812.7
x2 = 0.9781	–	807.8

CCCC[n+]1ccccc1.F[B-](F)(F)F + CCCCO
mass density [kg/m3]
Settings	x1 = 0.0025	x1 = 0.0047	x2 = 0	x2 = 0.1037	x2 = 0.1548	x2 = 0.2039	x2 = 0.2503	x2 = 0.3002	x2 = 0.301	x2 = 0.407
298.15 K	–	–	1214.1	1192.1	1180.4	1168.7	1156.9	1143.6	–	–
318.15 K	792.6	794.5	1200.2	–	–	–	–	–	1130.3	1099.5

CCCO + CCCC[n+]1ccccc1.F[B-](F)(F)F
x1 = 1
Settings	mass density [kg/m3]
298.15 K	799.5
318.15 K	784.7

CCCC[n+]1ccccc1.F[B-](F)(F)F + CO
mass density [kg/m3]
Settings	298.15 K	318.15 K
x2 = 0	1214.1	1200.2
x2 = 0.0549	1209	–
x2 = 0.0975	1204.7	–
x2 = 0.1069	–	1189.9
x2 = 0.1459	–	1185.6
x2 = 0.2036	1192.8	–
x2 = 0.3009	1179.5	–
x2 = 0.3129	–	1163.4
x2 = 0.4086	–	1147.1
x2 = 0.5036	1141.6	–
x2 = 0.508	–	1125.7
x2 = 0.596	1116.7	–
x2 = 0.6069	–	1098.5
x2 = 0.6994	1078.6	–
x2 = 0.7007	–	1062.8
x2 = 0.749	1054.9	–
x2 = 0.8003	1024.6	–
x2 = 0.8017	–	1007.7
x2 = 0.8508	987.1	–
x2 = 0.8531	–	968.5
x2 = 0.8993	940.6	–
x2 = 0.9022	–	920.8
x2 = 0.9516	–	856.8

CCCC[n+]1ccccc1.F[B-](F)(F)F + O
Settings	mass density [kg/m3]
298.15 K, x2 = 0.1932	1206.4
298.15 K, x2 = 0.309	1201
298.15 K, x2 = 0.3952	1195.6
298.15 K, x2 = 0.6045	1178.2
298.15 K, x2 = 0.7062	1164.2
298.15 K, x2 = 0.8516	1127.7
298.15 K, x2 = 0.9013	1105.3
318.15 K, x2 = 0	1200.2
318.15 K, x2 = 0.0715	1197.4
318.15 K, x2 = 0.1455	1194.5
318.15 K, x2 = 0.2168	1191.6
318.15 K, x2 = 0.3236	1185.8
318.15 K, x2 = 0.4039	1181.1
318.15 K, x2 = 0.5126	1172.9
318.15 K, x2 = 0.6087	1163.2
318.15 K, x2 = 0.754	1140.8
318.15 K, x2 = 0.8529	1112.9
318.15 K, x2 = 0.9008	1091.3

CCCC[n+]1ccccc1.F[B-](F)(F)F + CCO
mass density [kg/m3]
Settings	298.15 K	318.15 K
x2 = 0	1214.1	1200.2
x2 = 0.1105	–	1184.6
x2 = 0.1761	–	1174.1
x2 = 0.2115	1181.8	–
x2 = 0.2133	–	1167.8
x2 = 0.2991	1165.2	–
x2 = 0.3101	–	1148.6
x2 = 0.3544	1153.5	–
x2 = 0.3992	1143	–
x2 = 0.4062	–	1127
x2 = 0.5018	1114.5	–
x2 = 0.5077	–	1098.6
x2 = 0.6003	1081.1	–
x2 = 0.6124	–	1061.8
x2 = 0.6992	1038.5	–
x2 = 0.702	–	1022.1
x2 = 0.799	981.2	–
x2 = 0.8037	–	962.8
x2 = 0.852	942.4	–
x2 = 0.8539	–	926.1
x2 = 0.904	–	881.9
x2 = 0.9041	897.3	–
x2 = 0.9506	848.9	–
x2 = 0.9509	–	832.3

CCCCO + CCCC[n+]1ccccc1.F[B-](F)(F)F
x1 = 1
Settings	mass density [kg/m3]
298.15 K	805.9
318.15 K	790.3

CO + CCCC[n+]1ccccc1.F[B-](F)(F)F
x1 = 1
Settings	mass density [kg/m3]
298.15 K	786.8
318.15 K	767.8
